The text below walks through data of PubChem BioAssay AID463173 (ICCB-Longwood Screening Facility, Harvard Medical School, 2010).

Hit rate of the full screen: of about 52,000 compounds, about 4,300 (8.3%) were called active. Cut-off read from the data, not from the text of the source: active = survival mostly below about 52% (no sharp cut-off); inactive = mostly above about 56%. The list shows a part of the results.

The test relates to DeltatarO mutant. Nature of the test: S. aureus survival, RN4220 and DeltatarO strains – OD600, teichoic acid synthesis inhibitors, primary screen (AID 463173). Particulars: S. aureus RN4220 wild type/DeltatarO growth, OD600, 18 h, hits give low values, screened at 18.75 µg/mL (by protocol).
As for `Cc1cc(Br)c2c3c(c(N)c(=O)[nH]c13)-c1ccccc1C2=O`, the survival was inactive: 78%.

For the compound `CCn1c(SCC(=O)NC(C)(C)C)nnc1-c1cccc(C)c1`, the survival was inactive: 66%.

In the case of `Cc1ccc(C)c(N2CCN(C(=O)CCS(=O)(=O)c3cc4c(cc3Cl)NC(=O)CO4)CC2)c1`, the survival was inactive: 81%.

As to `O=C(NCc1ccc2c(c1)CCN2C(=O)c1ccccc1)c1ccccc1`, the survival was inactive: 79%.

As for `Cc1ccc2oc3c(c(=O)c2c1)C(c1ccccc1F)N(CCCN(C)C)C3=O` (stereo not given), the survival was inactive: 73%.

In the case of `CCOc1ccccc1NC(=O)C(CC)Sc1nc2ncccc2[nH]1` (stereo not given), the survival is inactive: 67%.

For the compound `CCCSc1nnc2c(n1)OC(c1ccc(Br)s1)Nc1ccccc1-2` (stereo not given), the survival is inactive: 53%.

Turning to `COc1ccc(-n2ncc3c2ncn2nc(COc4ccc(Cl)cc4)nc32)cc1`, the survival is inactive: 113%.

Take `COc1ccc(CNC(=O)C2=C(C)C(=O)OC23CCCCC3)cc1`: the survival was inactive: 82%.

In the case of `Cc1oc2c(cc(NS(=O)(=O)c3ccc(C(C)C)cc3)c3ccccc32)c1C(=O)O`, the survival was active: 42%.

On to `CC(=O)Nc1ccc(S(=O)(=O)N2CCC(c3nnc(-c4ccc(C)cc4)o3)CC2)cc1`, for which the survival is inactive: 67%.

In the case of `CC(C)C(=O)N1c2nc(-c3ccco3)nn2C2(CCCCC2)[C@@H]2CCCC[C@@H]21`, the survival was inactive: 64%.

Take `CCOC(=O)c1ccc2[nH]c3c(c2c1)CCCCC3=O`: the survival was inactive: 93%.

For the compound `CCN(CC)C(=O)c1sc2c(c1C)c(=O)n(-c1ccc(Cl)c(Cl)c1)c(=O)n2Cc1cc(=O)n2ccccc2n1`, the survival was inactive: 112%.

Take `COc1cccc(CNC(=O)Cn2c(=O)n3nc(-c4cccc(F)c4)nc3c3ccccc32)c1`: the survival was inactive: 77%.

On to `COc1ccc(NC(=O)CCn2c(=O)c3cccn3c3cccnc32)cc1Cl`, for which the survival is inactive: 85%.

As for `O=C(Cn1c(=O)n(CCCS(=O)(=O)C2CCCCC2)c(=O)c2ccccc21)Nc1ccccc1C(F)(F)F`, the survival was inactive: 91%.

For the compound `Cc1ccc(S(=O)(=O)c2[nH]c(-c3ccccc3)nc2SCC(N)=O)cc1`, the survival is inactive: 78%.

Consider `Fc1ccc(-c2ccc(CNCCSc3nnnn3-c3ccccc3)o2)cc1`, for which the survival is active: 28%.

Regarding `O=S(=O)(Nc1nc2ccccc2nc1Nc1ccccc1Br)c1ccccc1`, the survival is inactive: 112%.

Consider `O=C(CSc1nc2c([nH]c3ccccc32)c(=O)n1-c1cccc(Cl)c1)NCC1CCCO1` (stereo not given), for which the survival was inactive: 135%.

Take `COc1ccc(CNS(=O)(=O)c2cc3c4c(c2)CCN4C(=O)CC3)cc1`: the survival was inactive: 118%.

Take `O=C(O)c1c(Cl)c(Cl)c(Cl)c(Cl)c1C(=O)N1CCCC1`: the survival is inactive: 94%.

With `CCOc1ccc(-c2cn(-c3ccc(C)cc3)c(SCC(=O)Nc3ccc(C)cc3)n2)cc1`, the survival is inactive: 83%.

For `COc1cccc(CNC(=O)C(C)n2ncn3cccc3c2=O)c1OC` (stereo not given), the survival is inactive: 71%.

For the compound `O=C(Cn1c2ncccc2c(=O)n1-c1ccccc1)NCc1ccccc1Cl`, the survival is inactive: 68%.

In the case of `CC1CCc2c(sc(NC(=O)c3cc(-c4cccc(Cl)c4)on3)c2C(N)=O)C1` (stereo not given), the survival is inactive: 67%.

Take `Cc1ccc(NC(=O)Cc2coc3ccc(C(C)C)cc23)c(C)c1`: the survival is inactive: 88%.

Consider `COc1ccc(CCNC(=O)CSc2cn(CCNC(=O)c3cccc(C(F)(F)F)c3)c3ccccc23)cc1OC`, for which the survival was inactive: 59%.

Take `Cc1ccc(-n2ncc3c(N4CCC(C(N)=O)CC4)ncnc32)cc1`: the survival was inactive: 60%.

For the compound `O=C(Cn1ncc2ccsc2c1=O)N1CCN(c2ccc(F)cc2)CC1`, the survival is inactive: 87%.

`CCC1CN(C(=O)Nc2cccc3c2CCCC3)c2cc(Cl)ccc2O1` (stereo not given): the survival was active: 44%.

For `Cc1ccc(S(=O)(=O)N2CCc3cc(C(=O)Nc4ccc(C(F)(F)F)cc4)ccc32)cc1`, the survival was inactive: 63%.

For the compound `O=C(Nc1ccccc1)N1CCCCC1`, the survival is inactive: 68%.

`Cc1cc(C(F)F)n2nc(C(=O)Nc3ccc(C(C)C)cc3)nc2n1`: the survival was inactive: 67%.

Turning to `Cc1oc(-c2ccccc2Cl)nc1CS(=O)CC(=O)NCc1ccc(Cl)cc1` (stereo not given), the survival is inactive: 56%.

As for `O=S(=O)(NC1CCc2ccccc21)c1ccc(S(=O)(=O)N2CCCC2)cc1` (stereo not given), the survival was inactive: 82%.

In the case of `O=c1ccc2cc(S(=O)(=O)NCc3ccc(Br)cc3)ccc2[nH]1`, the survival was inactive: 102%.

Turning to `O=C(NCC1CCCCC1)C1CCCN(c2ncccn2)C1` (stereo not given), the survival was inactive: 102%.

Consider `Cc1ccc(NC(=O)CSc2nccn2Cc2ccco2)cc1Cl`, for which the survival is inactive: 87%.

For `COc1cccc(NC(=O)CSCc2cc(=O)c3ccc(C)c(C)c3[nH]2)c1`, the survival is inactive: 74%.

For the compound `CCC(=O)N1CCc2cc(S(=O)(=O)NC(CC(C)C)C(=O)NCCc3cccc(C)c3)ccc21` (stereo not given), the survival is inactive: 71%.

`CCOc1nc(NC)nc(N(C#N)CN2C(=O)c3ccccc3C2=O)n1`: the survival is inactive: 83%.

For `S=c1sc2c(s1)SC1C(CC3C4C=CC(C4)C31)S2` (stereo not given), the survival is inactive: 97%.

As to `CCCn1c2ccccc2c2cnn(CC(=O)N3CCN(c4ccccc4F)CC3)c(=O)c21`, the survival was active: -4%.

For the compound `CCOc1ccc(CCNS(=O)(=O)c2c(C)nc3scc(C)n3c2=O)cc1OCC`, the survival is inactive: 83%.

Take `CCOc1ccc(CNC(=O)c2ccc3nc(CC)c(CC)nc3c2)cc1`: the survival was inactive: 120%.

Regarding `CC(C)Oc1cccc(C(=O)Nc2ccc3oc(-c4cccc(Cl)c4)nc3c2)c1`, the survival was active: 28%.

As for `COc1cccc(N2CCN(C(=O)CCCn3c(=O)[nH]c4ccc(Br)cc4c3=O)CC2)c1`, the survival is inactive: 53%.

`Cc1ccc(Nc2c(-c3ccc(Cl)cc3)nc3sccn23)c(C)c1`: the survival was inactive: 47%.

As for `Cc1ccc(C)c(NC(=O)N2CCC(CN3CCOCC3)CC2)c1`, the survival is inactive: 102%.

For `CCNc1ccc(-c2nc(-c3ccccn3)no2)cc1[N+](=O)[O-]`, the survival was inactive: 60%.

For `COc1ccc(-c2onc(C)c2C)cc1S(=O)(=O)NCC(C)c1ccccc1` (stereo not given), the survival was inactive: 79%.

Regarding `COc1ccc(N(CCC#N)S(=O)(=O)c2cccc3nsnc23)cc1`, the survival is inactive: 100%.

On to `Cc1cc(NC(=O)COCc2cc(-c3ccc(F)cc3)on2)ccc1Br`, for which the survival was inactive: 115%.

Consider `O=C(CCCCn1c(=O)c2ccccc2n(Cc2ccccc2Cl)c1=O)NCc1ccc2c(c1)OCO2`, for which the survival was inactive: 78%.

`CCc1ccc(N2CC34C=CC(O3)C(C(=O)O)C4C2=O)cc1` (stereo not given): the survival was inactive: 104%.

Regarding `CCCN(CCC)C(=O)Cn1nnc2sc(-c3ccccc3)cc2c1=O`, the survival was inactive: 70%.

Consider `O=c1c2cnn(-c3ccc(F)cc3)c2ncn1Cc1cccc(Cl)c1`, for which the survival is inactive: 104%.

For `CCn1c(=O)c2cc(C(=O)NCCCOC)sc2c2ccccc21`, the survival is inactive: 103%.

For `Cc1cc(C)n(-c2nc3ccccc3nc2Nc2ccc(Cl)cc2Cl)n1`, the survival is inactive: 75%.

In the case of `COc1ccc(CNC(=O)CCC2N=C3c4ccccc4N=C(SCc4cccc(F)c4)N3C2=O)cc1` (stereo not given), the survival is inactive: 117%.

As to `COc1ccc(S(=O)(=O)n2nc(C)c(S(=O)(=O)N3CCCCCC3)c2C)cc1`, the survival is inactive: 76%.

`Cc1cc(C)n2c(Nc3ccc4c(c3)OCCO4)c(-c3ccc(Cl)cc3)nc2n1`: the survival is inactive: 120%.

As for `Cc1ccccc1NC(=O)NCCCN1CCN(c2ccccc2F)CC1`, the survival was inactive: 130%.

Turning to `O=C(CNS(=O)(=O)c1ccccc1)N1CCCC1`, the survival is inactive: 82%.

For the compound `Cc1ccc(C(=O)c2cn(Cc3cccc(C)c3)c3nc(C)ccc3c2=O)cc1`, the survival is inactive: 54%.

Regarding `Cc1nn2c(=O)cc(COC(=O)c3cccc(NC(=O)COc4ccccc4Cl)c3)nc2s1`, the survival was inactive: 85%.

For the compound `COc1ccc(NC(=O)Cn2c(=O)n(-c3ccccc3)c(=O)c3c4c(sc32)CCCC4)c(OC)c1`, the survival was inactive: 94%.

On to `CCOC(=O)/C(C#N)=C\C1=C(N2CCCC2)CC(C)(C)OC1`, for which the survival is inactive: 91%.

Consider `Cc1ccc(CNC(=O)c2nc(SCc3ccc(F)cc3)ncc2Cl)cc1`, for which the survival is inactive: 71%.

Take `CC(C)Oc1ccc(CNS(=O)(=O)c2ccc3c(c2)C(C)(C)C(=O)N3C)cc1`: the survival is inactive: 84%.

For the compound `Cc1ccc(NC(=O)CSc2ncc(S(=O)(=O)c3ccc(C(C)C)cc3)c(=O)[nH]2)cc1C`, the survival was inactive: 87%.

Turning to `CCOc1ccccc1CN(CCc1ccc2c(c1)OCO2)Cc1ccccn1`, the survival is inactive: 77%.

As to `CCC1CCCCN1CCCNC(=O)c1ccc2c(c1)N(Cc1ccccc1F)C(=O)c1ccccc1S2(=O)=O` (stereo not given), the survival was inactive: 133%.

Turning to `CC1CCN(C(=O)CSc2nc(-c3ccc(C(C)C)cc3)no2)CC1`, the survival is inactive: 76%.

On to `COc1ccc(CCNC(=O)c2cc(C)nc3c2c(C)nn3-c2ccccc2)cc1OC`, for which the survival is inactive: 92%.

For the compound `CCc1ccc(NC(=O)c2cc(S(=O)(=O)N3CCCC3)ccc2F)cc1`, the survival is inactive: 95%.

Consider `Cc1ccc(C(=O)Nc2ccc3c(c2)N(C)C(=O)c2ccccc2S3)cc1`, for which the survival was inactive: 97%.

Turning to `CCCS(=O)(=O)N1CC(=O)N(c2ccccc2F)C(C)(C(=O)NC2CCCCCC2)C1` (stereo not given), the survival is inactive: 83%.

As for `COc1cc(CNC(=O)CSCc2nc3cccnc3n2C2CCCCC2)cc(OC)c1OC`, the survival was inactive: 116%.

As for `CC(C)=NNS(=O)(=O)c1ccc(N2CCCC2=O)cc1`, the survival is inactive: 71%.

For `CCOc1cc(C#N)c(NC(=O)c2cccc(S(=O)(=O)N3CCOCC3)c2)cc1OCC`, the survival was inactive: 118%.

For the compound `O=C(CCNS(=O)(=O)c1ccc2c(c1)CCCC(=O)N2)NCc1ccccc1Cl`, the survival is inactive: 87%.

Take `CCC(=O)N1CCc2cc(CNC(=O)Nc3ccccc3Cl)ccc21`: the survival is inactive: 78%.

Regarding `Cc1ccc(/C=[N+](\[O-])c2ccc(N(C)C)cc2)c2nsnc12`, the survival was inactive: 52%.

For the compound `Cc1nc2sccn2c(=O)c1S(=O)(=O)Nc1ccc(N2CCN(S(C)(=O)=O)CC2)cc1`, the survival is inactive: 127%.

`CCC(=O)N1c2ccccc2CC1C(=O)NCCN1CCN(c2cccc(C)c2C)CC1` (stereo not given): the survival is inactive: 77%.

On to `Cc1ccc(-c2nc3ccccc3o2)cc1NC(=O)c1cccc2c(Cl)cccc12`, for which the survival is active: 47%.

`O=C(Nc1ccc(N2CCCCC2)cc1)c1cccnc1`: the survival was inactive: 106%.
